In the RNAGym collection of RNA variant scans (doi:10.7554/elife.90254):
The source gives no read counts; variants with many changes may rest on few reads.

B1: LINE1-full (parent)
chain: UACGUAGGUGGUUUUCCCCUGAUAGUGCUAAGGGGGCCUGGAAGUUUGGACUGGGCAGAGCUCAACACAGCGUGGCAAAGUGGCUGUGGCUAGACUGCCUCUCUGGAUUCCUCGUCACUCAGCAGGGCAUCUCUGAGAGAAAUGCC

Variants of: B1
Assay: self-cleavage, relative activity (ratio to wild type); higher = more cleavage; in vitro, sequencing; the parent is a self-cleaving ribozyme

Row | Variant | self-cleavage
1 | U14A A67G A138G | 0.44
2 | A64G A77U A121G | 0.4
3 | C63U A65G A129G | 0
4 | U13C G34U U45C A67G U73C | 1.15
5 | U15C A64U A78G | 0.53
6 | U62C G126A U130C | 0
7 | A64G U100C U134C | 0.42
8 | C28G G32A C113U U132C | 0.27
9 | U87A A107U U112A | 0.1
10 | C17U A77U A140G | 0.93
11 | A24U A121U A136G | 1.68
12 | A22G G82U U91A A107G A138G | 0.5
13 | A24G C116U A140G A141U | 0.8
14 | A30C G35A A65G U119A G126A | 0.03
15 | G72A U108A C131U A142G | 1.99
16 | U14C U62C G89A A129U A140G | 0.07
17 | A69G G86A A129G A142G | 0.06
18 | A30G U73C U143A | 1.31
19 | U14C A64G A124U | 0.25
20 | C19U A22G A24U A79C | 1.37
21 | U45A A57C U85A | 0.16
22 | A2G U14C U87A | 0.46
23 | C37U U47C A77G U96C A117G | 0
24 | U13C A59G A69G | 0

Row | Variant | self-cleavage
25 | C19U U81C A138G | 1.8
26 | G11C A30G U47C A77G | 0.66
27 | U62A A78U C99A U104A U119A | 0.01
28 | A43U U115C C116U | 1.42
29 | U26A U62A U96C | 0
30 | A2G U5C G32C A67U U108C A121C | 0.61
31 | U9A U15C A24G A64U G88U U96C | 0.18
32 | A67U U108C C116U | 0.2
33 | G33U A59G U62A U102C A138U | 0
34 | U14C U15C G70A | 0.29
35 | G93U A124U A142G | 0.03
36 | U12C U26C U96G | 0
37 | A67U C98A U104A U108C | 0.03
38 | A6U U13C A67G G93A | 0
39 | U62C A124U A141G C145G | 0.09
40 | U26C U52C U62A A92G | 0
41 | C37U U73C G93A G114C | 0.02
42 | U26C G49A A57G U62C U85A A121G | 0.11
43 | U46C U96C A142G | 0.29
44 | C18U U73A U109C A117G | 0
45 | U9A U143C C146A | 0.74
46 | A30G U115C U130A | 1.41
47 | U20C U62A G125U | 0.02
48 | A43U A65G C76U A77G U115C | 0.03

Row | Variant | self-cleavage
49 | U39A A43G G55A U130C | 0.04
50 | U14C U62C U81A U87C | 0.16
51 | U13C A57U A141G | 0.1
52 | U1C U102A U119A A129U | 0.98
53 | U13C A69U U87A | 0.05
54 | A64G U81A A107U A140G | 0.2
55 | U62C U96A A138U | 0.02
56 | A43G U47G C110U U115A C128G | 1.23
57 | G72A U119A U143C | 1.93
58 | U9A U52A A64U C95U | 0.13
59 | C61A U73A U109A A140G | 0.02
60 | U62C A77G A124U | 0.07
61 | U45C U108C A136G A142U U143G | 1.15
62 | A69G A77U U104C C131U | 0
63 | A43G A57G G88U | 0.1
64 | U20C C63U G106A A107G U112C | 0.21
65 | C28U U47A U62C U87C C90U U132A | 0.02
66 | U46C A121G C123A | 0.72
67 | A43G U47C U87A | 0.2
68 | U104A C113A A141G | 1.22
69 | C68U U73G U100G U109C A136G A142G | 0
70 | U29A A65G G82A G139U | 0.07
71 | U45C G55A U87A | 0.03
72 | A2C U39A G82A | 1.65

Row | Variant | self-cleavage
73 | A67U U96A C101U | 0.04
74 | A78G G106U A107U | 0.84
75 | U9C A69G A124U U134C A142G | 0.97
76 | A59U C63U U115A A140G | 0.11
77 | A64U U115C U132C | 0.59
78 | G7A U85C A142G C146A | 0.35
79 | A50G A94G A124U | 0
80 | U14C G32A U46A A136U | 1.33
81 | U39C A79G A121U | 1.37
82 | U14C C19U A69G G105A U112C A117G | 0
83 | G75A G88A A124G G139A | 0.05
84 | G11A G33C U62C | 0.08
85 | U13C A59G A142U | 0.19
86 | U9A U12C U15A C84U U91C G105A | 0.26
87 | A121G A124C U143A | 1.06
88 | A22G U108A U115C | 0.99
89 | A69G C90U A107G A121G A124G | 0
90 | G8A U81C A94G | 1.06
91 | A57U U73C U132G | 0
92 | U14C A24U G36A | 1.15
93 | U23C A43G A57G A141G | 1.31
94 | G7U G36A U62C | 0.03
95 | U13C U15A C123U | 2.51
96 | G48A U73C U112C | 1.18

Row | Variant | self-cleavage
97 | U39C G54A U100A U134A | 0.06
98 | U12G A94G U132G | 0.33
99 | U1C U62C G126U | 0.03
100 | U14C U39A U87A U96A | 0
101 | G53A A69G U132C A138G | 0.64
102 | A57G C71U U85C U115C A138G | 0.29
103 | U91C U130C A142G | 1.04
104 | U12G U13C U81C U109A | 0.71
105 | G40A C98U A140G U143C | 0.12
106 | A59C U85C A121U | 0.16
107 | A69G U102A U108C | 0.38
108 | U14A A64U U112C | 0.38
109 | A67G A124U G126A A138G | 0.57
110 | U39C C56A U115C | 0.06
111 | U9C A65G G72A | 0.04
112 | A64U U87C U134C | 0.16
113 | G35A U39G A65G A69C | 0.08
114 | G83A U85A C111U A136G | 0.08
115 | U46C U62G C103A | 0.03
116 | U14C A65U U115C | 0.1
117 | A57U A78U C90G | 0.06
118 | U14A A64C U112C | 0.16
119 | U12C A43G U112C A117C | 0
120 | U45C A59U A64G U132C A138G | 0.28

Row | Variant | self-cleavage
121 | G27U A50G U104A A107C | 1.67
122 | U1C G58U U134C | 0.23
123 | G32A A57U C66A | 0.08
124 | U100G U115A A140U | 1.45
125 | A67U U73C U85C U132A U134A | 0
126 | U14C A22G U47A U143A | 1.02
127 | U5C U13C U26C A77C A142G | 0.71
128 | G36U A117U A124G | 0.8
129 | U26C A57G G114A | 0.99
130 | A67U U85C U96C | 0
131 | U62C A124U A136G | 0.06
132 | C16A U26A C61U | 0.09
133 | U14C A79G U87C U100A | 0.71
134 | G80U A117G A124G A142G | 1.48
135 | A22G A65G A67U | 0.09
136 | A67G U96C C123U | 0
137 | G41C U112C A136G | 2.26
138 | U1C G4A A22U U47C U102C | 1.53
139 | U96C U109C U143C | 0.04
140 | C3A A22U U26C A78G A117G | 1.67
141 | U47C G72A A79U G125U | 1.98
142 | A43G U81C U130C A141G | 1.84
143 | A30U A69U A140U | 0.04
144 | C38U A50G U132C | 0.99

Row | Variant | self-cleavage
145 | G35A C76U U100C A124G | 1.95
146 | U26A U45C U52A | 1.16
147 | U12G A57G U115C | 2.3
148 | A24U A43G A124G | 1.41
149 | U14C A22G U132C | 1.11
150 | A50G A57G A77G | 0
151 | U13C G35A U39A G89U A107G U115A A141G | 0.04
152 | U12G U52C A129G | 1.04
153 | U47A C63U U112A | 0.25
154 | C38U U81C C90G | 0.03
155 | A6U U12C A67C U96A A138G | 0.33
156 | U12G U85A A129U A142C | 0.2
157 | A77G A94G U104A | 0.35
158 | U13C G72U A79G U104C | 0.32
159 | U15A C19U U47C | 0.47
160 | U13C U85C U108C U112C A138G | 0
161 | A24G A79G U109C | 1.27
162 | U15C G41U U96C | 0.12
163 | U20C A65G G105A U112C | 0.06
164 | G53U A65G A141G | 0.11
165 | A65G G88A U100C A129G | 0.06
166 | U13G C84U A142G | 0.18
167 | U20C A42U G105A | 1.33
